From the RNAGym collection of RNA variant scans (doi:10.7554/elife.90254)
Read counts are not given, so values of variants with three or more changes are uncertain.

B1: LINE1-full (parent)
chain: UACGUAGGUGGUUUUCCCCUGAUAGUGCUAAGGGGGCCUGGAAGUUUGGACUGGGCAGAGCUCAACACAGCGUGGCAAAGUGGCUGUGGCUAGACUGCCUCUCUGGAUUCCUCGUCACUCAGCAGGGCAUCUCUGAGAGAAAUGCC

Variants of: B1
Experiment: self-cleavage, relative activity (ratio to wild type); higher = more cleavage; in vitro, sequencing; the parent is a self-cleaving ribozyme

Variant | self-cleavage
UACGUAGGUGGUUCUCCCCUGAUAGUGCUAAGGGGGCCUGGAAGUAUGGACAGGGCAGAGCUCAACACAGCGUGGCAAAGUGGCUGUGGCUAGACUGCCUCUCUGGAUUCCUCGUCACUCAGCAGGGCGUCUCUGAGAGAAAUGCC | 2.96
UACGUAGGUGGUUCUCCCCUGAUAGUGCUAAGGGGGCCUGGAAGUAUGGACUGGGCAGAGCUCAACACAGCGUGGCAAAGUGGCUGUGGCUAGACUGCCUCUCUGGAUUCCUCGUCACUCAGCAGGGCAUCUCUGAGAGUAAUGCC | 1.43
UACGUAGGUGGUUCUCCCCUGAUAGUGCUAAGGGGGCCUGGAAGUAUGGACUGGGCAGAGCUCAACACAGCGUGGCAAAGUGGCUGUGGCUAGACUGCCUCUCUGGAUUCCUCGUUACUCAGCAGGGCAUCUCUGAGAGAAAUGCC | 1.39
UACGUAGGUGGUUCUCCCCUGAUAGUGCUAAGGGGGCCUGGAAGUUCGGACUGGGCAGAGCUCAACACAGCGAGGCAAAGUGGCUGUGGCUAGACUGCCUCUCUGGAUUCCUCGUCACUCAGCAGGGCAUCUCUGAGAGAAAUGCC | 1.58
UACGUAGGUGGUUCUCCCCUGAUAGUGCUAAGGGGGCCUGGAAGUUGGGACUGGGCAGAGCUCAACACAGCGUGGCAAAGUGGCUGUGGCUAGACUGCCUCUCUGGAUUCCUCGUCACUCAGCAGGGCAUCUCUGAGAGAAGUGCC | 1.49
UACGUAGGUGGUUCUCCCCUGAUAGUGCUAAGGGGGCCUGGAAGUUGGGGCUGGGCAGAGCUCAACACAGCGUGGCAAAGUGGCUGUGGCUAGACUGCCUCUCUGGUUUCCUCGUCACUCAGCAGGGCAUCUCUGAGAGAAGUGCC | 0.51
UACGUAGGUGGUUCUCCCCUGAUAGUGCUAAGGGGGCCUGGAAGUUGGGACUGGGCAGAGCUCAUCACAGCGCGGCUAAGUGGCUGUGGCUAGACUGCCUCUCUGGAUUCCUCGUCACUCAGCAGGGCAUCUCUGAGAGAAAUGCC | 0
UACGUAGGUGGUUCUCCCCUGAUAGUGCUAAGGGGGCCUGGAAGCUUGGACUGGGCAGAGCUCAACACAGCGUGGCAAAGUGGCUGUGGCUAGACUGCCUCUCUGGAUUCCUCGUCACCCAGCAGGGCUUCUCUGAGAGAAAUGCC | 1.04
UACGUAGGUGGUUCUCCCCUGAUAGUGCUAAGGGGGCCUGGAAGUCUGGACUGGGCAGAGCUCAACACAGCGUGGCAAAGUGGCUGUGGCUAGACUGCCUCUCUGGAUUCCCCGUCACUCAGCAGGGCAUCUCUGAGGGAAAUGCC | 1.64
UACGUAGGUGGUUCUCCCCUGAUAGUGCUAAGGGGGCCUGGAAGUCUGGACUGGGCAGAGCUCAACACAGCGUGGCAAAGUGGCUGUGGCUAGACUGCCUCUCUGGAUUCCUCGUCACUCAGCAUGGCAUCUCUGAGAGAAAAGCC | 1.23
UACGUAGGUGGUUCUCCCCUGAUAGUGCUAAGGGGGCCUGGAAGUUAGGACUGGGCAGAGCUCAACGCAGCGUGGCAAAGUAGCUGUGGCUAGACUGCCUCUCUGGACUCCUCGUCACUCAGCAGGGCAUCUCUGAGAGAAAUGCC | 0.33
UACGUAGGUGGUUCUCCCCUGAUAGUGCUAAGGGGGCCUGGAAGUUCGGACUGGGCAGAGCUCAACACAGCGUGGCAAAUUGGCUGUGGCUAGACUGCCUCUCUGGAUUCCUCGUCACUCAGCAGGGCAUCUCUGAGAGAAAUGCC | 1.11
UACGUAGGUGGUUCUCCCCUGAUAGUGCUAAGGGGGCCUGGAAGUCUGGACUGGGCAGAGCUCAACACAGCGUGGCAAAGUGGCUGUGGCUAGUCUGCCUCUCUGGAUUCCUCGUCACUCAGCAGGACAUCUCUGAGAGAAAUGCC | 0.42
UACGUAGGUGGUUCUCCCCUGAUAGUGCUAAGGGGGCCUGGAAGUUCGGACUGGGCGGAGCUCAACACAGCGUGGCAAAGUGUCUGUGGCUAGACUGCCUCUCUGGAUUCCUCGUCACUCAGCAGGGCAUCUCUGAGAGAAAUGCC | 0.54
UACGUAGGUGGUUCUCCCCUGAUAGUGCUAAGGGGGCCUGGAAGUUCGGACUGGGCAGAGCUCAACACAGCGUGGCAGAGUGGCUGUGGCUAGACUGCCUCUCUGGAUUCCUCGUCACUCAGCUGGGCAUCUCUGAGAGAAAUGCC | 1.4
UACGUAGGUGGUUCUCCCCUGAUAGUGCUAAGGGGGCCUGGAAGUCUGGACUGGGCAGAGCUCAACACAGCGUGGCAAAGUGGCUGUGGCUAGACUGCCUCUCUGGAUUCCUCGUCACUCUGCAGGGCAUCACUGAGAGAAAUGCC | 1.39
UACGUAGGUGGUUCUCCCCUGAUAGUGCUAAGGGGGCCUGGAAGUUCGGACUGGGCAGAGCUCAACACAGCGUGGCAAAGUGGCUGUGGCUAGACUGCCUCUCUGGAUUCCUCGUCACUCCGCAGGGCAUCUCUGAGAGAAAUGCC | 0.77
UACGUAGGUGGUUCUCCCCUGAUAGUGCUAAGGGGGCCUGGAAGUUCGGACUGGGCAGAGCUCAACACAGCGUGGCAAAGUGGCUGUGGCUAGACUGCCUCUCUGGAUUCCUCGUCACUCAGCAGGGCAUUUCUGAGGGAAAUGCC | 1.15
UACGUAGGUGGUUCUCCCCUGAUAGUGCUAAGGGGGCCUGGAAGUCUGGACUGGGCAGAGCUCAACACAGCGUGGCAAAGUGGCUGUGGCUAGACUGCCUCUCUGGAUUCCUCGUCACUCAGCAGGGCAUCUCUGAGAGAAGUGCC | 1.12
UACGUAGGUGGUUCUCCCCUGAUAGUGCUAAGGGGGCCUGGAAGUUGGGAUUGGGCAGAGCUCAACACAGCGUGGCAAAGUGGCUGUGGCUAGACUGCCUCUCUGGAUUCCUCGUCACUCAGCAGGGCAUCUCUGUGAGAAAUGCC | 1.16
